Measurements published in article PMC4336329 (PLoS ONE, 2015).
Hit rate of the full screen: of about 310,000 compounds, about 2,200 (0.71%) showed an effect of 50% or more. Effects have a minus sign here. Some of the results follow.

molecular target: human ether-à-go-go-related gene (hERG) potassium channel (human, UniProt Q12809); test: primary screen, population patch clamp on CHO cells stably expressing hERG
Sequence (Q12809 whole entry, looked up): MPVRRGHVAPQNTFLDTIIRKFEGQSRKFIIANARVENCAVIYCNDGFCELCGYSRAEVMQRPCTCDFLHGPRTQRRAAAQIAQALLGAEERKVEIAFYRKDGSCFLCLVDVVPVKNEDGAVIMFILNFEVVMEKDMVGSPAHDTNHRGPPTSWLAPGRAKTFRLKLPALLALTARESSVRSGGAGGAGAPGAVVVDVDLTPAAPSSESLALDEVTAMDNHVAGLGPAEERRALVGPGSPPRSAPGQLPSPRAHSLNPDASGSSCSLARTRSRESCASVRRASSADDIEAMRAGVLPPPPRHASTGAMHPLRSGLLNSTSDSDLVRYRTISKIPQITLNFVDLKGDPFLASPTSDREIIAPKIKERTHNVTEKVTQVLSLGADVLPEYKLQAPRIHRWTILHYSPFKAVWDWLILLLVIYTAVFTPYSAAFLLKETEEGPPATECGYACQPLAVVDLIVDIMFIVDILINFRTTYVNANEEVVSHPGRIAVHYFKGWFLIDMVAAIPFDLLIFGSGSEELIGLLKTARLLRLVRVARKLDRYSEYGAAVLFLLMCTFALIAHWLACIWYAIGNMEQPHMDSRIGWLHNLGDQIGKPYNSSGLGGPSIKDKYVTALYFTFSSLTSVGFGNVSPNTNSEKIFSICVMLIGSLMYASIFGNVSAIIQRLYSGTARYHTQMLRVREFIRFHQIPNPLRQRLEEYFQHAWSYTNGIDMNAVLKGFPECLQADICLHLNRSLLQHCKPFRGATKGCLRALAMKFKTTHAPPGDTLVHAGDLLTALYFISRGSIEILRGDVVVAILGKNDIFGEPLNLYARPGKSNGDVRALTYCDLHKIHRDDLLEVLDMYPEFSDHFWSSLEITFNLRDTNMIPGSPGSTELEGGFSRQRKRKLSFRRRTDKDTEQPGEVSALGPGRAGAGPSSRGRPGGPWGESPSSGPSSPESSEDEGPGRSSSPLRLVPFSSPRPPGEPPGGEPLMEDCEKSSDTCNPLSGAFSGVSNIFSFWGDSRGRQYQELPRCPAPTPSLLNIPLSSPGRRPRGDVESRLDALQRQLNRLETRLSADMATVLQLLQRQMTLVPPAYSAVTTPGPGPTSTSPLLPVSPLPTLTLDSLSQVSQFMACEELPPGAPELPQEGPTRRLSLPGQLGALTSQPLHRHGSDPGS

| Compound | hERG current change (%, negative = inhibition) at 1uM [%] |
| --- | --- |
| Cc1cc(=O)[nH]c(SCC(=O)NC(c2ccccc2)c2ccccc2)n1 | 2.56 |
| O=C1CSC(=S)N1/N=C/C=C/c1ccccc1 | 13.5 |
| Cc1c(C(=O)NCCS(=O)(=O)N2CCN(c3ccccc3F)CC2)cccc1[N+](=O)[O-] | 13.7 |
| O=S(=O)(Nc1nc2ccccc2nc1NCc1ccco1)c1ccc(F)cc1 | 16 |
| CCn1c(O)c(N=N)c2ccccc21 | 11.7 |
| Cc1ccc(C)c(S(=O)(=O)NCc2ccc(C(=O)N3CCN(C)CC3)cc2)c1 | 6.45 |
| CC(NC(=O)c1ccco1)c1ccc2c(c1)OCCO2 (stereo not shown) | 14.9 |
| OCC[C@@H]1C[C@@H](O)[C@H](O)[C@]2(OCc3ccccc32)O1 | 14.5 |
| COC(=O)c1cc(=O)n(Cc2cccs2)c(=Nc2ccc(F)cc2)s1 | 7.23 |
| COC(=O)[C@@]12CCCN1[C@H](c1ccc(-c3ccc(OC)cc3)cc1)[C@@H]1C(=O)N(C)C(=O)[C@@H]12.O=C(O)C(F)(F)F | 9.84 |
| CCOC(=O)c1cnc2ccc(C(=O)OC)cc2c1NCCN1CCOCC1 | 2.7 |
| CCOCCCn1c(=NC(=O)c2cccs2)c(C#N)cc2c(=O)n3ccccc3nc21 | -49.3 |
| O=C(Oc1cc2oc(=O)c3c(c2cc1Cl)CCCC3)c1cccs1 | 16.5 |
| COc1ccc(-c2c/c(=N\c3nc(-c4ccccc4)c(C)s3)c3ccccc3o2)cc1O | 11.9 |
| Cc1ccccc1N(CC(=O)Nc1ccccc1C(=O)NCc1ccco1)S(=O)(=O)c1ccccc1 | 5.84 |
| CN(C)CCN(Cc1cccs1)S(=O)(=O)c1csc(C(N)=O)c1 | 9.27 |
| Cc1cc(-c2nc(C)c(-c3nnc(SCC(=O)Nc4ccccc4)n3C)s2)no1 | 9.64 |
| S=C(Nc1ccccc1)N1CCC(Cc2ccccc2)CC1 | 13.1 |
| O=C(COC(=O)COc1ccc(Br)cc1)NC1CCCCCC1 | 1.82 |
| Cc1[nH]n(C2=NCCS2)c(=O)c1N=Nc1cccc(C(F)(F)F)c1 | 0.0638 |
| CNc1nc(NC)nc(-n2c(C(F)(F)F)nc3ccccc32)n1 | 3.3 |
| CC(=O)NCc1cc(-c2nn(C)c(=O)c3ccccc23)ccc1C | 8.54 |
| CCC(C)Sc1nc(O)cc(=O)[nH]1 (stereo not shown) | 11.4 |
| O=C(c1cc(S(=O)(=O)N2CCOCC2)ccc1F)N1CCC2(CC1)OCCO2 | -7.67 |
| COc1ccc(CN(C)CC(O)COc2ccc(-c3ccccc3)cc2)cc1OC (stereo not shown) | 0.124 |
| O=C1/C(=C/c2ccccc2)CCCc2ccccc21 | 12 |
| O=C(O)c1cccc(N2C(=O)c3cccc(Oc4ccc(Cl)cc4)c3C2=O)c1 | 13.3 |
| COc1ccc(NC(=O)Nc2ccc(N3CCOCC3)c3nonc23)c(OC)c1 | 16.5 |

| Compound | hERG current change (%, negative = inhibition) at 1uM [%] |
| --- | --- |
| CCN1CCN(C(=O)c2cc(-c3ccco3)nc3ccccc23)CC1 | -6.15 |
| Cc1cc(=O)nc2c3ccccc3n(CC(=O)NC(C)c3ccc4c(c3)OCCO4)n12 (stereo not shown) | 10.4 |
| CCOc1ccccc1-n1c(SCC(=O)Nc2ccc(CC)cc2)nc2n[nH]c(C)c2c1=N | 9.67 |
| COc1ccc(C2CC(=O)N3CN(c4ccc(C)c(Cl)c4)CSC3=C2C#N)cc1OC (stereo not shown) | 2.68 |
| CCOC(=O)c1c(NC(=O)CN2C(=O)NC(C)(c3ccc(OC(F)F)cc3)C2=O)sc(C)c1C (stereo not shown) | 10.6 |
| C[C@H]1[C@H](c2ccccc2)C[C@@H](C(=O)O)C1(C)C | 2.81 |
| CCOC(=O)c1cc(-c2ccccc2)sc1NC(=O)C(C)OC(=O)c1cccnc1Cl (stereo not shown) | -1.37 |
| CCCCNC(=O)NCC(=O)Nc1ccc(F)c(F)c1 | 4.38 |
| Clc1ccc2nc(N3CCNCC3)nc(-c3ccccc3)c2c1 | 7.08 |
| Cc1ccc(C(=O)NCCc2ccccc2)cc1N1CCCC1=O | 24.3 |
| CCOC(=O)c1c(CC(C)C)csc1NC(=O)COC(=O)c1cc(OC)c(OC)cc1[N+](=O)[O-] | -13.5 |
| COCCn1c(SCC(=O)N2CCCCCC2)nc2c([nH]c3ccccc32)c1=O | 8.15 |
| COc1cccc(C2(C#N)CCN(C)CC2)c1 | 9.48 |
| O=C(NC(Cc1ccccc1)C(=O)O)/C(=C/c1cccc([N+](=O)[O-])c1)NC(=O)c1ccco1 (stereo not shown) | 20.2 |
| CCOC(=O)C1=C(COc2ccccc2)NC(=O)NC1c1ccc(Cl)cc1 (stereo not shown) | -11.1 |
| COCCn1c(-c2ccc(Cl)cc2)cnc1SCC(=O)NCc1cccs1 | -2.15 |
| CCc1ccc(C2CC(=O)Nc3c2c(=O)nc2c(C)cccn32)cc1 (stereo not shown) | 8.85 |
| O=C(CCl)Oc1ccc2occ(C(=O)c3cccs3)c2c1 | 6.64 |
| COCCNC(=O)C(OC(=O)CC1Sc2ccccc2NC1=O)c1ccncc1 (stereo not shown) | 0.268 |
| O=c1[nH][nH]c(C(F)(F)F)c1C=Nc1cccc(Cl)c1 | 9.37 |
| C=CCn1c(O)c(/C(CC)=N/NC(=S)Nc2ccccc2)c(=O)[nH]c1=O | 9.98 |
| Cc1ccc2ccccc2c1NC(=O)c1ccco1 | 11 |
| CCN(c1ccccc1)S(=O)(=O)c1c[nH]c2ccc([N+](=O)[O-])cc12 | 10.4 |
| N#Cc1c(SCC(=O)Nc2ccccc2)nsc1SCC(=O)Nc1ccccc1 | 5.19 |
| Cc1ccc(Cl)c(NC(=O)CSc2n[nH]c(=O)n2C2CC2)c1Cl | 12.2 |
| O=C(Nc1nnc(SCc2ccc(F)cc2)s1)C1CC(=O)N(Cc2ccccc2)C1 (stereo not shown) | 7.92 |
| CN(C)S(=O)(=O)N1CCC(Oc2ccc(C(=O)NCC(C)(C)CO)cc2)CC1 | 14.8 |
